Results are given in words; binding and its absence hold for the method and conditions named. In cells and extracts the contact can be indirect. Some results given as binding are weak or reduced against the parent protein; the word gives no strength. For some of these results: Sequences can lack the tags named with a protein.

The chains behind the UniProt entries cited, without tags or fusion partners.
UniProt P37476: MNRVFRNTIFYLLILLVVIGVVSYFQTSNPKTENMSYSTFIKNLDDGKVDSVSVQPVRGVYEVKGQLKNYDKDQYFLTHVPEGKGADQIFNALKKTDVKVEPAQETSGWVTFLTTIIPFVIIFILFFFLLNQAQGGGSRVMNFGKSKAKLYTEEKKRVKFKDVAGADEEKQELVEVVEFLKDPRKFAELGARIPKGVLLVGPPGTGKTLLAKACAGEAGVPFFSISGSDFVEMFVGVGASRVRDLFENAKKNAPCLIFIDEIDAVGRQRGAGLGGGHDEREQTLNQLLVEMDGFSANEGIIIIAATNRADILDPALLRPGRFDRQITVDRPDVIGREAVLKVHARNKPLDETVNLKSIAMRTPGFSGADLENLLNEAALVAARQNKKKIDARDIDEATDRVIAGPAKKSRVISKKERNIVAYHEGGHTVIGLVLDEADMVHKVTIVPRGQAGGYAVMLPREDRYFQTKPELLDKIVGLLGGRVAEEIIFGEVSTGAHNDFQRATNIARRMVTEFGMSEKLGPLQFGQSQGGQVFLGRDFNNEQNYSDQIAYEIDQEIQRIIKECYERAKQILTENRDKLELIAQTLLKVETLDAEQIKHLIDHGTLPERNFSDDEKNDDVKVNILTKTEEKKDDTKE

In assay [1] the target is T1, SpoIIIAF (Bacillus subtilis (endogenous in sporulating B. subtilis cells)) (UniProt P49783).
T1 sequence: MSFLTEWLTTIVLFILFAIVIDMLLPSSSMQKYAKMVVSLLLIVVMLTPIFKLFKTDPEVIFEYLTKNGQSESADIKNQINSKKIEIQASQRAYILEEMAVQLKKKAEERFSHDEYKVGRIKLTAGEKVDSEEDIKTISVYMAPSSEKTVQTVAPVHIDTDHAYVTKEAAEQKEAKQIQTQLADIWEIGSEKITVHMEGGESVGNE
The assay is described as follows: co-IP; anti-SpoIIIAG, anti-SpoIIIAE or anti-SpoIIIAF antibody resin; membrane fraction of sporulating B. subtilis (hour 2.5) solubilized with 0.5% DDM; 4 h at 4°C; washed with Buffer S with 0.01% DDM; immunoblot. (In general: In western blotting, separated proteins are transferred to a membrane and probed.)

Assay [2] concerns the target T2, SpoIIIAG (Bacillus subtilis (endogenous in sporulating B. subtilis cells)) (UniProt P49784).
T2 sequence: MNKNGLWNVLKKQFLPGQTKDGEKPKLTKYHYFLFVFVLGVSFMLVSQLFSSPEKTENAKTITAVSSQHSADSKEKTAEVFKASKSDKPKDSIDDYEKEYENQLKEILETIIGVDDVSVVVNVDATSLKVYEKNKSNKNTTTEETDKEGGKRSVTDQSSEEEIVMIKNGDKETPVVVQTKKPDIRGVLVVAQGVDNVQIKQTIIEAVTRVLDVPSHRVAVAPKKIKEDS
The assay is described as above.

The target of assay [3] is T3, CFP-SpoIIQ fusion (Bacillus subtilis) (UniProt P71044).
T3 sequence: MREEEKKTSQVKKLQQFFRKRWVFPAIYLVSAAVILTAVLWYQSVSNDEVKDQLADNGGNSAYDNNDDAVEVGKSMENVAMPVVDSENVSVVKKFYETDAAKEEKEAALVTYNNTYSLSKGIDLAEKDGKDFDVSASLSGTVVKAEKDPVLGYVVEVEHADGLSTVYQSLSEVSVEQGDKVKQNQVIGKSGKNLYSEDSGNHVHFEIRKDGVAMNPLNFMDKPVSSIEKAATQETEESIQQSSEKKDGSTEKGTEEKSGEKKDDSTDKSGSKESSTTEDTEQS
Put plainly: co-IP; anti-GFP antibody resin; membrane extracts of sporulating B. subtilis (hour 2.5) solubilized with the mild detergent digitonin; immunoblot.

The target of assay [4] is T4, myc-tagged SpoIIIAD fusion (Bacillus subtilis) (UniProt P49781).
T4 sequence: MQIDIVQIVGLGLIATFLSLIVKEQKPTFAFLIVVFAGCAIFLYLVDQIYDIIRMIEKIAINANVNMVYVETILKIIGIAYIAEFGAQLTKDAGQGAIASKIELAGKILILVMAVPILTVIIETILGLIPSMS
The assay is described as follows: co-IP; data not shown: anti-Myc antibody resin, and blots for SpoIIIAA, SpoIIIAH and SpoIIQ in the immunoprecipitates from DDM-solubilized membranes.

For assay [5], the target named is T5, SpoIIIAE (Bacillus subtilis (endogenous in sporulating B. subtilis cells)) (UniProt P49782).
T5 sequence: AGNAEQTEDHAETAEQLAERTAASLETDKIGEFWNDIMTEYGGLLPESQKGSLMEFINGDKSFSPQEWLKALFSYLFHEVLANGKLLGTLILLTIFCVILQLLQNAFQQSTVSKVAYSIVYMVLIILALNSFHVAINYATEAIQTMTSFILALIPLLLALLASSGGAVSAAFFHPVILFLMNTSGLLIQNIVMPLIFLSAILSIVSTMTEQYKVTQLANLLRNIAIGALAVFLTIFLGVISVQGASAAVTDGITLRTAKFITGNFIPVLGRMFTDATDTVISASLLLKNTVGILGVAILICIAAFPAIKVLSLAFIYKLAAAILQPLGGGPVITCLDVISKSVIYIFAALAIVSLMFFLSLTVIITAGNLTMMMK
Put plainly: co-IP; anti-SpoIIIAG, anti-SpoIIIAE or anti-SpoIIIAF antibody resin; membrane fraction of sporulating B. subtilis (hour 2.5) solubilized with 0.5% DDM; 4 h at 4°C; washed with Buffer S with 0.01% DDM; immunoblot.

In assay [6] the target is T6, FLAG-tagged SpoIIIAH (Bacillus subtilis) (UniProt P49785).
T6 sequence: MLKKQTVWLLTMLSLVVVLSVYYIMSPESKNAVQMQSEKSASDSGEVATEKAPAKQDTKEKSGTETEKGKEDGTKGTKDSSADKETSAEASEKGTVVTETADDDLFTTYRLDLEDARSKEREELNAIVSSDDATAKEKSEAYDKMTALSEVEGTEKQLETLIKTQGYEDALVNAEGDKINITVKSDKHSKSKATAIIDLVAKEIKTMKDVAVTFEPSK
Put plainly: co-IP; anti-FLAG M2-agarose; cleared lysates of protoplasts lysed in hypotonic buffer (50 mM Tris pH 7.5, 1 mM EDTA), without detergent; immunoblot.

Assay [7] deals with T3, CFP-SpoIIQ fusion (Bacillus subtilis). Put plainly: co-IP; data not shown: anti-GFP antibody resin, digitonin-solubilized membrane extracts, detection of SpoIIIAG.
Assay [8] concerns the target FLAG-tagged FtsH (Bacillus subtilis) (UniProt P37476). The assay is described as follows: co-IP; anti-FLAG M2-agarose; cleared lysates of protoplasts lysed in hypotonic buffer (50 mM Tris pH 7.5, 1 mM EDTA), without detergent; immunoblot.

B1: SpoIIIAE (protein, UniProt P49782 25-399)
chain: T5 sequence
Turning to B1, the binding result in assay [1] is reported as “binds”; in assay [2] it was “binds”; in assay [3] it was “binds weakly”; in assay [4], “binds”.

B2: SpoIID (protein, UniProt P07372 1-343)
chain: MKQFAITLSVLCALILLVPTLLVIPFQHNKEAGASVESEKTAVSTKPASKGAETLKASPVSIPVYRTANQSVENIPLEEYVIGVVASEMPATFKPEALKAQALAARTFIVRLMVSNSAVEAPKGSLVDDTQMFQVYKSKAELKKQWGTSYETKLKKITDAVASTQGKILTYNNQPIEASFFSTSNGYTENAEAYWTSAIPYLKSVKSPWDKKSPKYKATKTFTAAEFQQKLGVKLDGSSAVGKITGETPGHQVATAVINGKTLKGRDIREKLGLNSADFEWKRNGDTITVTTRGFGHGVGMSQYGANFMAKEGKTVDDIVKYYYQGTQISEADAFLNKYMAKK
As to B2, the binding entry in assay [1], in assay [2] and in assay [5] was “no binding” in each case.

B3: SpoIIQ (protein, UniProt P71044 1-283)
chain: T3 sequence
As for B3, the binding result in assay [6] is reported as “binds”.

B4: SpoIIIAF (protein, UniProt P49783 1-206)
chain: T1 sequence
B4: the binding result is reported as “binds” in assay [2], “binds” in assay [5], “binds weakly” in assay [3] and “binds” in assay [4].

B5: SpoIIIAG (protein, UniProt P49784 1-229)
chain: T2 sequence
Turning to B5, the binding result in assay [7] was “binds weakly”; in assay [1], “binds”; in assay [5] it was “binds”; in assay [4], “binds”; in assay [6], “binds”; in assay [8], “no binding”.

B6: myc-tagged SpoIIIAD fusion (protein, UniProt P49781 1-133)
chain: T4 sequence
Consider B6, for which the binding result in assay [2] is reported as “binds”.
